Experimental data as given in PubChem BioAssay AID1347417 (National Center for Advancing Translational Sciences (NCATS), 2020).
About 5,300 (4.4%) of roughly 120,000 compounds were called active. The shares of active, inactive and inconclusive entries below differ from those in the screen. The call rests on the fitted dose curve; in most records, active means well fitted inhibition curve with a large enough effect; inconclusive means small, poorly fitted or top-dose-only effect; inactive means no such curve, though single readings can be large or run the other way. Potencies of inconclusive entries are doubtful fits and often do not repeat.

Assay: qHTS Primary assay for Inhibitors of Plasmodium falciparum Dd2 growth in vitro; further: nearly all actives have a fitted effect of over 65% in size;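 on activity, negative = inhibition: plate controls were DMSO vehicle for no effect and reference drug for full effect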
Details: P. falciparum Dd2 growth, SYBR Green, 72 h; activity, negative = inhibition: at 28.9 µM (top of the series) unless noted; series mostly up to 28.9 µM
Procedure, shortened: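 Infected erythrocytes (Dd2, 0.3% parasitemia, 2.5% hematocrit final) are added to compound in RPMI-1640/Albumax II medium, grown 72 h at 37C in low oxygen, then lysed with saponin/Triton-X containing SYBR Green and read by fluorescence.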
Potency means the concentration at half of the fitted maximal effect; tags describe the fitted curve by direction and shape.

Row | SMILES | outcome | Potency | activity, negative = inhibition
1 | COCCn1ncc(N2CCC(C(=O)NCCCN3CCc4ccccc4C3)C2)cc1=O (stereo not given) | inactive | – | –
2 | CC(C)CNC(=O)CC1Sc2ncccc2N(CC(C)C)C1=O (stereo not given) | inactive | – | –
3 | COc1ccc(-c2cc(C(=O)N3CCCCC3C)no2)cc1OC (stereo not given) | – | inconclusive: 17.8 µM [inhibitor, single point] | –
4 | CCOc1ccc(OCC)c(NC(=O)c2nnn(CC(=O)Nc3cc(Cl)ccc3OC)c2N)c1 | – | inconclusive: 2 µM [inhibitor, partial curve] | –
5 | Cc1nc([C@H]2CCN(CC3CCCCC3)C[C@H]2NC(=O)C2CCOCC2)n[nH]1 | – | inconclusive: 10 µM [inhibitor, single point] | –
6 | COc1ccc2cc1Nc1ccc(cc1)C[C@H](NCc1ccc3c(c1)CCO3)C(=O)N(C)[C@H](C(=O)NCCC(C)C)C2 | – | inconclusive: 0.708 µM [inhibitor, full curve, poor fit] | –
7 | N#Cc1cccnc1-c1ccc(C(=O)O)cc1 | – | – | inconclusive: -32.9% [inhibitor] [at 44.1 µM]
8 | CN(CC1CCOC1)C(=O)c1ccc(F)cc1F (stereo not given) | inactive [at 5.79 µM] | – | –
9 | O=C(CCn1nnc2ccccc21)N1CCC2(CC1)[C@H](O)C[C@@H]2OCCO | – | – | inactive: 26.5%
10 | c1cc(N2CCOCC2)ccc1-c1cc(-c2cn[nH]c2)c2cncn2c1 | – | inconclusive: 15.8 µM [inhibitor, single point] | –
11 | Cc1ccc(Cn2c(SCc3ccc(C(=O)N4CCCCC4)cc3)nc3ccncc32)cc1 | – | inconclusive: 12.6 µM [inhibitor, single point] | –
12 | Cc1ccccc1NC(=O)C1CCN(S(=O)(=O)c2c(C)noc2/C=C/c2ccco2)CC1 | – | inconclusive: 11.2 µM [inhibitor, partial curve, poor fit] | –
13 | Nc1cc(N2CCC(Oc3ccc4c(c3)OCO4)(C(=O)O)CC2)ncn1 | – | – | inactive: -1.72%
14 | Clc1ccccc1C1Cn2cnc(-c3nc(-c4ccccn4)no3)c2CO1 (stereo not given) | – | active: 6.31 µM | –
15 | COc1ccc(NC(=O)N2C[C@@H]3C[C@H](C2)c2ccc(NC(=O)c4ccccc4)c(=O)n2C3)cc1 | inactive | – | –
16 | CC(=O)NCC(=O)N1Cc2ccccc2CC2(CCCN(CC3CCNC3)C2)C1 (stereo not given) | – | – | inconclusive: -183% [inhibitor]
17 | COc1cccc(S(=O)(=O)N2CCC(n3cnnc3-c3ccccc3)CC2)c1 | – | inconclusive: 15.8 µM [inhibitor, single point] | –
18 | CCOc1ccccc1NC(=O)Nc1nnc(N2CCCC(C)C2)s1 (stereo not given) | – | inconclusive: 11.2 µM [inhibitor, single point] | –
19 | FC(F)(F)c1ccc(CN2CCC3(CC(c4cccnc4)=NO3)C2)cc1 (stereo not given) | – | inconclusive: 14.1 µM [inhibitor, single point] | –
20 | CN(C(=O)CSc1nc(-c2ccccc2)no1)c1ccc(F)cc1 | – | inconclusive: 3.98 µM [inhibitor, partial curve, poor fit] | –
21 | COc1ccc(C(=O)c2sc3nc4c(c(C(F)(F)F)c3c2N)CN(C(C)=O)CC4)cc1OC | – | inconclusive: 12.6 µM [inhibitor, single point] | –
22 | COc1ccc(-c2nc(C(C)C)nc3c2CCN([S+](=O)([O-])c2ccc(C)cc2)CC3)cc1 | – | inconclusive: 1.41 µM [inhibitor, single point] | –
23 | O=C(COc1ccccc1)Nc1nnc(S(=O)(=O)Nc2ccccc2)s1 | – | – | inactive: -6.41%
24 | c1ccc(C2=NOC3(CCN(C4COC4)CC3)C2)cc1 | – | – | inactive: 3.24% [at 44.1 µM]

Row | SMILES | outcome | Potency | activity, negative = inhibition
25 | CC(C)Oc1ccc(-c2noc(-c3ncn4c3COC(c3ccc(F)cc3)C4)n2)cc1 (stereo not given) | – | inconclusive: 3.98 µM [inhibitor, single point] | –
26 | CN(C1CCc2ccccc21)[S+](=O)([O-])c1cccc(C(F)(F)F)c1 (stereo not given) | – | – | inactive: -14.1%
27 | Cn1ccnc1CN1CCC2(CC1)OC(=O)N(Cc1ccccc1F)C2(C)c1ccccc1 (stereo not given) | – | inconclusive: 3.98 µM [inhibitor, single point] | –
28 | Cc1cccc(C)c1-n1ncc(C(=O)O)c1C1CCN(C(=O)OC(C)(C)C)CC1 | – | – | inactive: -2.01%
29 | Cc1nc(CN2C[C@H](C(=O)Nc3cccc(Cl)c3)C[C@@H]2c2ccc(F)cc2)cs1 | – | inconclusive: 6.31 µM [inhibitor, partial curve, poor fit] | –
30 | CCCNC(=O)[C@@H]1Cc2cn(Cc3ccncc3)c3cccc(c23)[C@H](CC(C)C)N1 | – | inconclusive: 3.55 µM [inhibitor, single point] | –
31 | CCC(C)NC(=O)C1COC2(CCN(C(=O)c3ccc(F)cc3)CC2)N1C(=O)c1cccc(OC)c1 (stereo not given) | inactive | – | –
32 | CCOc1ccc(NC(=O)Cn2cnc3sc(C)c(S(=O)(=O)N4CCN(c5ccccc5OC)CC4)c3c2=O)cc1 | – | inconclusive: 11.2 µM [inhibitor, single point] | –
33 | COc1ccc(NC(=O)c2ccco2)cc1NC(=O)C(C)(C)Oc1ccc(Cl)cc1 | – | active: 10 µM | –
34 | CCOc1ccc(CNC(=O)C2CCCN(c3nnc(C)c4c(C)n(-c5ccccc5)nc34)C2)cc1 (stereo not given) | – | inconclusive: 2.24 µM [inhibitor, full curve] | –
35 | COc1cccc(CC(=O)N[C@@H]2CN(Cc3ccccn3)C[C@H]2CN(C)C)c1 | – | – | inactive: 4.14%
36 | Cc1cc(C(=O)N2CC3CC(C2)[C@H]2CCCC(=O)N2C3)no1 (stereo not given in full) | – | – | inactive: -0.742%
37 | CC1(C)[C@H]2CC[C@@H](CNC(=O)c3cccc4[nH]ccc34)[C@@H]1C2 | – | inconclusive: 0.398 µM [inhibitor, full curve, poor fit] | –
38 | CNC(=O)[C@@H]1C[C@H](Oc2cccnc2)CN1S(=O)(=O)c1cccs1 | – | – | inactive: 16.1%
39 | COC(=O)[C@@H]1Cc2nc[nH]c2CN1Cc1ccc(Cl)cc1 | – | inconclusive: 12.6 µM [inhibitor, partial curve, poor fit] | –
40 | COc1ccc(CNC(=O)C2CCc3nc(N4CCN(C(C)=O)CC4)sc3C2)cc1 (stereo not given) | inactive | – | –
41 | COc1ccc(C(=O)NC2CCN(c3cn[nH]c(=O)c3)CC2)cc1 | inactive | – | –
42 | COCCCNC(=O)CSc1nc2c(sc3ccccc32)c(=O)n1CCc1ccc(OC)c(OC)c1 | – | – | inactive: -7.43%
43 | c1ccc(CCn2cnc3cccnc32)cc1 | – | – | inactive: 0.667% [at 44.1 µM]
44 | Cc1nc(N2CCCCCC2)ncc1C(=O)O | – | – | inactive: 10.5%
45 | Cc1cccc(N(CC(=O)Nc2ccccc2C(F)(F)F)S(=O)(=O)c2ccccc2)c1C | – | inconclusive: 10 µM [inhibitor, single point] | –
46 | O=C1NC(=NC2CCCC2)C2(CCCN(Cc3cccnc3)C2)N1c1cc(F)cc(F)c1 (stereo not given) | – | – | inconclusive: -40.2% [inhibitor]
47 | O=C([C@@H]1C[C@H](F)CN1S(=O)(=O)c1cccc(Cl)c1)N1CCc2ccccc2C1 | – | – | inactive: 22.6%
48 | O=C(CSc1nccn1Cc1ccc(F)cc1)Nc1nc2ccccc2s1 | – | – | inactive: 2.86%

Row | SMILES | outcome | Potency | activity, negative = inhibition
49 | CCN(Cc1ccccc1)C(=O)C1CCN(S(=O)(=O)c2ccc3c(c2)CCCN3C(C)=O)CC1 | – | inconclusive: 12.6 µM [inhibitor, single point] | –
50 | COc1cc(NC(=O)C2=CC(c3ccc(F)cc3)=NS(=O)(=O)N2C)cc(OC)c1OC | – | inconclusive: 17.8 µM [inhibitor, single point] | –
51 | COCCN(C)C[C@@H]1CN(C(=O)c2cccc3c(C)c(C)[nH]c23)C[C@@H]1CO | – | – | inactive: -15.6%
52 | CCN(CC)c1cc(C)c2cc(NC(=O)/C=C/c3cc(OC)c(OC)c(OC)c3)ccc2n1 | – | active: 1.12 µM | –
53 | O=C(NCc1ccnc2[nH]ccc12)c1ccccc1 | – | inconclusive: 31.6 µM [inhibitor, single point] | –
54 | O=C1NC2(CCN(C(=O)Cc3ccccc3)CC2)Oc2ccccc21 | – | inconclusive: 5.01 µM [inhibitor, full curve] | –
55 | CC1=C[C@@H](CNC(=O)CCC(=O)O)[C@H](C(C)C)C[C@H]1CC(=O)N1CCN(c2ccccn2)CC1 | – | inconclusive: 12.6 µM [inhibitor, single point] | –
56 | O=C(Cn1nnnc1-c1ccccc1F)Nc1ccc(OC(F)(F)F)cc1 | inactive | – | –
57 | CCOC(=O)c1c(C)n(-c2ccc(OC)cc2)c2ccc(OC(=O)COc3ccccc3)cc12 | – | active: 11.2 µM | –
58 | CC(=O)N1CCC(Oc2ccc(Cl)cc2C(=O)NCCOc2cccnc2)CC1 | – | – | inactive: -22.9%
59 | Cc1nnc2ccc(NCc3ccccc3F)nn12 | – | – | inactive: -8.45%
60 | COc1ccc(CCC(=O)N2CCC3(CC2)NC(=O)N(c2ccc(F)cc2)N3)cc1 | – | inconclusive: 10 µM [inhibitor, single point] | –
61 | COc1ccccc1Nc1sc(C(=O)c2ccc(F)cc2)c(N)c1S(=O)(=O)c1ccc(C)cc1 | – | – | inactive: -28.7%
62 | CCCS(=O)(=O)N[C@@H]1CN(Cc2ccccn2)C[C@H]1CN(C)C | – | – | inactive: 1.72%
63 | COc1cc(=O)n2c(c1C(=O)Nc1cccc(SC)c1)CCCC2 | – | – | inactive: 8.91%
64 | CCOc1ccc(CCNC(=O)c2cn(-c3ccc(OC)cc3)c(=O)c3ccccc23)cc1OCC | – | inconclusive: 17.8 µM [inhibitor, single point] | –
65 | CC(C)N(C(=O)CSc1cn(CC(=O)N2CCCCCC2)c2ccccc12)C(C)C | – | inconclusive: 20 µM [inhibitor, single point] | –
66 | COC(=O)c1cccc(-c2nccn2CC(O)c2ccccc2)c1 (stereo not given) | – | – | inactive: -21.4%
67 | Cc1cccc(CC(=O)N2CC(=O)Nc3ccc(Br)cc3C2c2ccc(F)cc2)c1 (stereo not given) | – | inconclusive: 10 µM [inhibitor, single point] | –
68 | CCC(CC)c1cc([C@H]2CN3CC[C@H]2C[C@@H]3CNC(=O)C(C)(C)C)nc(-c2ccncc2)n1 | – | inconclusive: 2.24 µM [inhibitor, single point] | –
69 | O=C(CCn1cnc2ccccc2c1=O)NC1CCCN(CCc2ccccc2)C1 (stereo not given) | – | inconclusive: 17.8 µM [inhibitor, single point] | –
70 | Cc1cc2c(cc1S(=O)(=O)Nc1cccc(C#N)c1)OCC(=O)N2 | – | – | inactive: 1.09%
